Reference: patent US20020086278A1, “CHROMOGENIC MEDIA CONTAINING BLOOD OR HEMIN” (priority 1999, published 2002)
Where a name gives a salt, the structure may show the parent alone.

Test system: E. coli (non-O157) (esco)
Format: cell-based
Set-up: key: + = color detected; v = color varied slightly with strain; 0 = no color detected; < = decreased growth vs. control

`O=P(O)(O)Oc1c[nH]c2cc(Cl)c(Br)cc12` [Mag-Phos, 5-Br-6-Cl-3-indolyl-phosphate, p-touidine salt] was tested, and the “Colony Color (Summary)” value was “v”.
